From patent publication US20160340422A1 (BEIJING HANMI PHARMACEUTICAL, published 2016)

Legend:
[1] = target: T1, B7 molecule on Raji cells; assay: binding to B7; method not stated in Example 11 (MFI read-out)
T1 construct: whole, on cells; Only 'B7 molecule' is printed; Raji is a human cell line, but neither the species nor the family member is stated; also called ligand-B7 molecule

[2] = target: T2, Mouse IL-17A (mouse, UniProt Q62386 26-158, limits assumed); assay: ELISA on coated mouse IL-17A
T2 construct: Bought recombinant protein; also called mice IL-17A
T2 sequence (looked up): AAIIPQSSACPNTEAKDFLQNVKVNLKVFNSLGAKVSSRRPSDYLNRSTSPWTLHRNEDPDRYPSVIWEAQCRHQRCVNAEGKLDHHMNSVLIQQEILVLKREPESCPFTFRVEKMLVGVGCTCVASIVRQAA

[3] = target: T3, Human IL-17A (human, UniProt Q16552 24-155); assay: ELISA, coated human IL-17A
T3 construct: Bought recombinant protein; also called Interleukin 17A

[4] = target: T2, Mouse IL-17A; assay: ELISA, coated mouse IL-17A, HRP anti-mouse IgG
[5] = target: T3, Human IL-17A; assay: cell-based or functional assay
T3 sequence (Q16552 24-155 limits assumed): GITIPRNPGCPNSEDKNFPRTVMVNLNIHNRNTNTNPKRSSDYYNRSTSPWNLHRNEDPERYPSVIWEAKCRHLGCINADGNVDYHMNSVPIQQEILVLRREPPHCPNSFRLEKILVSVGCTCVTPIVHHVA

[6] = target: T3, Human IL-17A; assay: ELISA, coated human IL-17A, HRP anti-mouse IgG

B1: Humanized analogue of the bifunctional fusion protein A (other)
heavy: [about 120 residues skipped]GGGSGGGGSGGGGSGGGGSGGGGSEVQLVESGGGLVQPGRSLRLSCAASGFSLTNYAMHWVRQAPGKGLEWVSAIWNDGDIDYADSVEGRFTISRDNAKNSLYLQMNSLRAEDTAVYYCAKEGREGFVGYYVMDAWGQGTLVTVSS[human IgG1 constant region skipped]
light: DIQMTQSPSSLSASVGDRVTITCKASQNINKYLDWYQQKPGKAPKLLIYNADNLHTGVPSRFSGSGSGTDFTLTISSLQPEDVATYYCLQRESWPYTFGQGTKVEIKRTVAAPSVFIFPPSDEQLKSGTASVVCLLNNFYPREAKVQWKVDNALQSGNSQESVTEQDSKDSTYSLSSTLTLSKADYEKHKVYACEVTHQGLSSPVTKSFNRGEC
[1]
  Mean fluorescence intensity (MFI) for binding to B7: 20 MFI

B2: Chimera analogue of the bifunctional fusion protein A (other)
heavy: [about 120 residues skipped]GGGSGGGGSGGGGSGGGGSGGGGSQVQLKESGPGLVQPSQTLSLTCTVSGFSLTNYYVHWVRQPPGKGLEWMGGVWNDGDTSYNSVLRSRLSITRDTSKSQVLLKMSSLQTEDTATYYCAREGREGFVGYYVMDAWGPGASVTVSS[human IgG1 constant region skipped]
light: DIQMTQSPSFLSASVGERVTLSCKASQNINKYLDWFQQKLGEAPKLLIYNADNLHTGIPSRFSGSGSFSDFILTISSLQPEDDATYFCLQRESWPYTFGAGTKLELKRTVAAPSVFIFPPSDEQLKSGTASVVCLLNNFYPREAKVQWKVDNALQSGNSQESVTEQDSKDSTYSLSSTLTLSKADYEKHKVYACEVTHQGLSSPVTKSFNRGEC
notes: also called the chimera
[1]
  Mean fluorescence intensity (MFI) for binding to B7: 20 MFI

B3: Bifunctional fusion protein B (other)
heavy: [about 120 residues skipped]GGGSGGGGSGGGGSGGGGSGGGGSQVQLQESGPGLVKPSETLSLTCTVSGFSLPSHSVSWIRQPPGKGLEWIGIIWNQGGTDYNSAFKSRVTISVDTSKNQFSLKLSSVTAADTAVYYCARNAYITDYYYENYFMDAWGQGTLVTVSS[human IgG1 constant region skipped]
light: DIVMTQSPLSLPVTPGEPASISCKSSQSLLFSENQKNYLAWYLQKPGQSPQLLIYWTSTRQSGVPDRFSGSGSGTDFTLKISRVEAEDVGVYYCQQSYYTPYTFGQGTKVEIKRTVAAPSVFIFPPSDEQLKSGTASVVCLLNNFYPREAKVQWKVDNALQSGNSQESVTEQDSKDSTYSLSSTLTLSKADYEKHKVYACEVTHQGLSSPVTKSFNRGEC
notes: CTLA4 ECD fused to the N-terminus of the heavy chain of humanized 16C10 (from US 7,846,443); also called human CTLA4 ECD-linker-anti-IL-17A mAb hc-B with anti-IL-17A mAb lc-B
[2]
  binding result: no binding
[3]
  EC50: 103 pM

B4: Bifunctional fusion protein A (other)
heavy: [about 120 residues skipped]GGGSGGGGSGGGGSGGGGSGGGGSQVQLKESGPGLVQPSQTLSLTCTVSGFSLTNYYVHWVRQPPGKGLEWMGGVWNDGDTSYNSVLRSRLSITRDTSKSQVLLKMSSLQTEDTATYYCAREGREGFVGYYVMDAWGPGASVTVSSAKTTAPSVYPLAPVCGDTTGSSVTLGCLVKGYFPEPVTLTWNSGSLSSGVHTFPAVLQSDLYTLSSSVTVTSSTWPSQSITCNVAHPASSTKVDKKIEPRGPTIKPCPPCKCPAPNLLGGPSVFIFPPKIKDVLMISLSPIVTCVVVDVSEDDPDVQISWFVNNVEVHTAQTQTHREDYNSTLRVVSALPIQHQDWMSGKEFKCKVNNKDLPAPIERTISKPKGSVRAPQVYVLPPPEEEMTKKQVTLTCMVTDFMPEDIYVEWTNNGKTELNYKNTEPVLDSDGSYFMYSKLRVEKKNWVERNSYSCSVVHEGLHNHHTTKSFSRTPGK
light: DIQMTQSPSFLSASVGERVTLSCKASQNINKYLDWFQQKLGEAPKLLIYNADNLHTGIPSRFSGSGSFSDFILTISSLQPEDDATYFCLQRESWPYTFGAGTKLELKRADAAPTVSIFPPSSEQLTSGGASVVCFLNNFYPKDINVKWKIDGSERQNGVLNSWTDQDSKDSTYSMSSTLTLTKDEYERHNSYTCEATHKTSTSPIVKSFNRNEC
notes: CTLA4 ECD fused to the N-terminus of the heavy chain of rat 1D10 / mouse IgG2a anti-IL-17A antibody; also called human CTLA4 ECD-linker-anti-IL-17A mAb hc-A with anti-IL-17A mAb lc-A
[4]
  binding result: binds
[5]
  IC50 for inhibiting GROα secretion from HT-29 cells induced by IL-17A: 911 pM

B5: Bifunctional fusion protein C (other)
heavy: QVQLKESGPGLVQPSQTLSLTCTVSGFSLTNYYVHWVRQPPGKGLEWMGGVWNDGDTSYNSVLRSRLSITRDTSKSQVLLKMSSLQTEDTATYYCAREGREGFVGYYVMDAWGPGASVTVSSAKTTAPSVYPLAPVCGDTTGSSVTLGCLVKGYFPEPVTLTWNSGSLSSGVHTFPAVLQSDLYTLSSSVTVTSSTWPSQSITCNVAHPASSTKVDKKIEPRGPTIKPCPPCKCPAPNLLGGPSVFIFPPKIKDVLMISLSPIVTCVVVDVSEDDPDVQISWFVNNVEVHTAQTQTHREDYNSTLRVVSALPIQHQDWMSGKEFKCKVNNKDLPAPIERTISKPKGSVRAPQVYVLPPPEEEMTKKQVTLTCMVTDFMPEDIYVEWTNNGKTELNYKNTEPVLDSDGSYFMYSKLRVEKKNWVERNSYSCSVVHEGLHNHHTTKSFSRTPGK
light: [about 120 residues skipped]GGGSGGGGSGGGGSGGGGSGGGGSDIQMTQSPSFLSASVGERVTLSCKASQNINKYLDWFQQKLGEAPKLLIYNADNLHTGIPSRFSGSGSFSDFILTISSLQPEDDATYFCLQRESWPYTFGAGTKLELKRADAAPTVSIFPPSSEQLTSGGASVVCFLNNFYPKDINVKWKIDGSERQNGVLNSWTDQDSKDSTYSMSSTLTLTKDEYERHNSYTCEATHKTSTSPIVKSFNRNEC
notes: CTLA4 ECD linked to the N-terminus of the light chain of control antibody A
[6]
  binding result: binds
[4]
  binding result: binds
